{
  "source": "paper PMC4336329",
  "about": "(PLoS ONE, 2015)",
  "note": "In all, about 310,000 compounds went through this assay and about 2,200 (0.71%) showed an effect of 50% or more. The effect is printed as a negative number. This is one part of the list.",
  "data": [
    {"target": "human ether-à-go-go-related gene (hERG) potassium channel (human, UniProt Q12809)", "sequence (Q12809 whole entry, looked up)": "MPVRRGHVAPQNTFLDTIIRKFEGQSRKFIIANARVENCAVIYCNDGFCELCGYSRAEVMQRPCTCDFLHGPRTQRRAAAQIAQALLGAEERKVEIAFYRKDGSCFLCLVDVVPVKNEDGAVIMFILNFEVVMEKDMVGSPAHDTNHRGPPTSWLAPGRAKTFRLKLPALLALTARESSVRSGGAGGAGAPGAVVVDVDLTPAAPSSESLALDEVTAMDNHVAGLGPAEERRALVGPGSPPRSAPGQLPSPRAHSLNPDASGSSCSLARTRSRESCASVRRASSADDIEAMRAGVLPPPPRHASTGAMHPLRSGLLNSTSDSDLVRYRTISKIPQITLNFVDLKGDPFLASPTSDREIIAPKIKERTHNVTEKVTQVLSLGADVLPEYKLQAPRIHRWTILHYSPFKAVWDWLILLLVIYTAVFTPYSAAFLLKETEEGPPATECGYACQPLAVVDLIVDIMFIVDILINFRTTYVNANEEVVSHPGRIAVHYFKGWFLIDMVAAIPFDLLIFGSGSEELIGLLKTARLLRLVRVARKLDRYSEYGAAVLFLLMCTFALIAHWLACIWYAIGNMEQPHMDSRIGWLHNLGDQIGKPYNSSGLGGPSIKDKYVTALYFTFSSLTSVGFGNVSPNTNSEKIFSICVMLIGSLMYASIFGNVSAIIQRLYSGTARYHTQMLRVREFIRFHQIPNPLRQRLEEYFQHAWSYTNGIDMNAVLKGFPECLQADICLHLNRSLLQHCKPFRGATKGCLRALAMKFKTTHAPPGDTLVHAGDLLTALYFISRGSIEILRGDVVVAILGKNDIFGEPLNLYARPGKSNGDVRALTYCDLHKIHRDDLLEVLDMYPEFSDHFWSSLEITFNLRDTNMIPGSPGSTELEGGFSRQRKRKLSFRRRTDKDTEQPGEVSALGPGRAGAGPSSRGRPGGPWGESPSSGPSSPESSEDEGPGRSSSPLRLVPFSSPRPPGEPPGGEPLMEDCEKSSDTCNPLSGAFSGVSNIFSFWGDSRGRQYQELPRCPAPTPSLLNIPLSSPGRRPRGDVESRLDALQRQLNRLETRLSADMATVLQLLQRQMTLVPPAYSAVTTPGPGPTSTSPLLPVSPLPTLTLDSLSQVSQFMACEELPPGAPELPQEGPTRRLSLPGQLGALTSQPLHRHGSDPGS", "assay": "primary screen, population patch clamp on CHO cells stably expressing hERG", "units": {"hERG current change (%, negative = inhibition) at 1uM": "%"}, "values": [
      {"smiles": "C#Cc1cccc(-n2nnc(C(=O)OC)c2-c2ccccc2)c1", "hERG current change (%, negative = inhibition) at 1uM": 8.91},
      {"smiles": "Cc1ccc(C(=O)Nc2ccccc2C(=O)NC(Cc2ccccc2)C(=O)O)cc1", "note": "(centres unmarked)", "hERG current change (%, negative = inhibition) at 1uM": 10.7},
      {"smiles": "Cc1ccc(Cn2nnc3c(=O)n(Cc4ccccc4C)cnc32)cc1", "hERG current change (%, negative = inhibition) at 1uM": 9.05},
      {"smiles": "O=C(O)C1CCC(Cn2c(SCc3cc(=O)n4cc(Br)ccc4n3)nc3ccsc3c2=O)CC1", "note": "(centres unmarked)", "hERG current change (%, negative = inhibition) at 1uM": 5.8},
      {"smiles": "COc1ccccc1N1CCN(C(=O)CN2C(=O)C3CCCCC3C2=O)CC1", "note": "(centres unmarked)", "hERG current change (%, negative = inhibition) at 1uM": 13.2},
      {"smiles": "CCc1ccc(NC(=O)C(C)OC(=O)CN2C(=O)NC3(CCCC3)C2=O)cc1", "note": "(centres unmarked)", "hERG current change (%, negative = inhibition) at 1uM": 12},
      {"smiles": "COc1ccc(C(=O)Nc2ccccc2C(=O)O)cc1NC(=O)C(c1ccccc1)c1ccccc1", "hERG current change (%, negative = inhibition) at 1uM": 6.11},
      {"smiles": "Cc1cc(C)n2ncc(C(=O)NCc3cccnc3)c2n1", "hERG current change (%, negative = inhibition) at 1uM": 3.17},
      {"smiles": "CCOc1ccc(OCC)c(NC(=O)CN2CCN(c3cccc(C)c3)C(C)C2)c1.Cl", "note": "(centres unmarked)", "hERG current change (%, negative = inhibition) at 1uM": 16.4},
      {"smiles": "COc1cc(SC)ccc1C(=O)Nc1ccc(C)cc1C", "hERG current change (%, negative = inhibition) at 1uM": 10.4},
      {"smiles": "CCOC(=O)N1CCC(NC(=O)c2cc(S(=O)(=O)N3CCOCC3)ccc2F)CC1", "hERG current change (%, negative = inhibition) at 1uM": -5.22},
      {"smiles": "O=C(COc1ccc2ccc(=O)oc2c1)c1ccccc1", "hERG current change (%, negative = inhibition) at 1uM": 15.9},
      {"smiles": "CCC(NC(=O)N(Cc1ccccc1)Cc1ccc2c(c1)OCO2)(C(F)(F)F)C(F)(F)F", "hERG current change (%, negative = inhibition) at 1uM": 9.15},
      {"smiles": "Cc1cc(C)nc(N/N=C/c2cn[nH]c2-c2ccc(F)cc2)n1", "hERG current change (%, negative = inhibition) at 1uM": 13.8},
      {"smiles": "COc1ccc(N2CCN(CC(O)COc3ccc(F)cc3)CC2)cc1.Cl", "note": "(centres unmarked)", "hERG current change (%, negative = inhibition) at 1uM": -47.8},
      {"smiles": "COc1ccc(S(=O)(=O)N2CCOCC2)cc1NC(=O)CN1C(=O)NC(C)(C2CC2)C1=O", "note": "(centres unmarked)", "hERG current change (%, negative = inhibition) at 1uM": 13.1},
      {"smiles": "COc1ccc(OCCC(=O)NC2=NCCS2)cc1", "hERG current change (%, negative = inhibition) at 1uM": -2.66},
      {"smiles": "O=C(CN1CCN(c2ccc(Cl)cc2[N+](=O)[O-])CC1)N1CCOCC1", "hERG current change (%, negative = inhibition) at 1uM": 1.27},
      {"smiles": "CCCC(=O)C1C(=O)NC(=O)NC1=O", "hERG current change (%, negative = inhibition) at 1uM": 20.6},
      {"smiles": "C=C1SC(Nc2c(C)cc(C)cc2C)=NC12CCCCC2", "hERG current change (%, negative = inhibition) at 1uM": 13.3},
      {"smiles": "COc1ccc(NC(=O)C/C(C)=N/NC(=O)C(=O)Nc2cccc(Cl)c2C)c(OC)c1", "hERG current change (%, negative = inhibition) at 1uM": 6.49},
      {"smiles": "CCN(NC(=O)C(O)(c1ccccc1)c1ccccc1)C(=O)c1ccccc1", "hERG current change (%, negative = inhibition) at 1uM": 4.56},
      {"smiles": "COc1ccc(NCc2cc(=O)[nH]c3ccccc23)cc1", "hERG current change (%, negative = inhibition) at 1uM": 10.4},
      {"smiles": "Clc1ccccc1CSc1ncccn1", "hERG current change (%, negative = inhibition) at 1uM": 5.52},
      {"smiles": "COc1ccc(CNS(=O)(=O)NCc2ccc(C)cc2)cc1OC", "hERG current change (%, negative = inhibition) at 1uM": -8.25},
      {"smiles": "O=C1c2ccccc2NC2(CCCC2)N1O", "hERG current change (%, negative = inhibition) at 1uM": 9.23},
      {"smiles": "O=C(CCn1c(=S)oc2ccccc21)Nc1ccccc1Br", "hERG current change (%, negative = inhibition) at 1uM": 16.9},
      {"smiles": "O=C(NCc1nnnn1-c1ccc(F)c(F)c1)c1ccc2c(c1)OCO2", "hERG current change (%, negative = inhibition) at 1uM": 6.02},
      {"smiles": "CC1(C)Cc2cccc(OCC(O)CNCc3ccccn3)c2O1.Cl", "note": "(centres unmarked)", "hERG current change (%, negative = inhibition) at 1uM": 3.52},
      {"smiles": "C/C(Nc1ccc(C)cc1)=C(/C#N)C(N)=O", "hERG current change (%, negative = inhibition) at 1uM": 6.37},
      {"smiles": "Cc1ccc(CC(=O)OCCNC(=O)c2cccnc2)cc1.Cl", "hERG current change (%, negative = inhibition) at 1uM": 8.42},
      {"smiles": "C[C@H](NC(=O)c1nc[nH]c1C(=O)NCC(=O)OC(C)(C)C)c1ccccc1", "hERG current change (%, negative = inhibition) at 1uM": 8.06},
      {"smiles": "CC1(C)Cc2c(cnn2-c2ccccc2)C(NC(=O)CCCN2CCCCC2=O)C1", "note": "(centres unmarked)", "hERG current change (%, negative = inhibition) at 1uM": 16.5},
      {"smiles": "CCN1CCN(CC(=O)N2N=C(c3cccs3)CC2c2ccc(C)cc2)C(=O)C1=O", "note": "(centres unmarked)", "hERG current change (%, negative = inhibition) at 1uM": -3.57},
      {"smiles": "COc1ccccc1CNC(=O)C/C(C)=N/NC(=O)Cc1ccccc1", "hERG current change (%, negative = inhibition) at 1uM": -4.5},
      {"smiles": "Cc1ccc(NC(=O)CCCC(=O)O)c(-c2nc3ccccc3[nH]c2=O)c1", "hERG current change (%, negative = inhibition) at 1uM": 8.56},
      {"smiles": "CCOC(=O)c1c(S(=O)(=O)NCC(=O)Nc2cccc(C)c2)c(C)n(C)c1C", "hERG current change (%, negative = inhibition) at 1uM": 18.6},
      {"smiles": "O=C(O)c1[nH]c2ccc(Cl)cc2c1CC(=O)N1CCN(c2ccccc2)CC1", "hERG current change (%, negative = inhibition) at 1uM": 12.8},
      {"smiles": "CC(C)(C)c1ccccc1OCCOCCSc1ncccn1", "hERG current change (%, negative = inhibition) at 1uM": 2.49},
      {"smiles": "O=C(c1cc(-c2ccccc2)on1)N1CCCc2ccccc21", "hERG current change (%, negative = inhibition) at 1uM": 8.2},
      {"smiles": "COc1ccccc1NC(=O)CN1C(=O)COc2ccc(S(=O)(=O)N3CCCCCC3)cc21", "hERG current change (%, negative = inhibition) at 1uM": 12.3},
      {"smiles": "CCCCCOc1ccc(NC(=O)CSc2cccc3cccnc23)cc1", "hERG current change (%, negative = inhibition) at 1uM": 16.3},
      {"smiles": "COc1ccc(C2=NOC(CNC(=S)N3CCOCC3)C2)cc1", "note": "(centres unmarked)", "hERG current change (%, negative = inhibition) at 1uM": 10.6},
      {"smiles": "COc1ccc2c(c1)c(CC(=O)OCC(=O)O)c(C)n2C(=O)c1ccc(Cl)cc1", "hERG current change (%, negative = inhibition) at 1uM": -2.36}
    ]}
  ]
}
